# Reference: the supplement of paper PMC8728848
# Some of the results follow.
# B1: ClecSol-Fc (Cryptosporidium parvum) (protein)
# chain: CPEGWISNGEKTRCFKLVTFDRPRTFSHGFKACNDLGGTEVETRRRNGSKETNEYPVTLASVYKLSDEEAIRRTLVEQGDIHKTANGCFVGLRKYAFFRYPPGWYWIDSGSPVSVRDSEINWTSSYNASWLLRFKFPFEKCGFFDIGGLGRRPCWLIDSELSCAVCGTVAYDSGGLNPNKYSELIKQTDEIISKEPKLDLPGYNNLNCTDAWENNLSVGLCQNVSNILDSAWSSYQSSLNFPSINFNWKEDSTNEGGDQVYHNSYLDLPRYKQKKTFYWDQDPGTIPALSDEMKLIGLSAQPTYHPLDRSSSGSFESDSTESGRANEERNDTLEEMIYKQSSDSIEDILVPVTKPIFSDYSSIGRNSGVEEVYSSNVSTISSKGVVFPNTTTSSDNDFTKNNPANSSKHTSTSTTTNTTTTTTRTTTTTTTTTTTTTTTTTTTTETTTTKKSTTATKNTTTT
# Assays:
# Experiment in all cases: glycan array binding signal (z-score within array); higher = stronger binding
# Conditions in all cases: glycan notation: IUPAC condensed, linker removed
# [1] = biological target: Fuc(a1-2)[Gal(a1-3)]Gal(b1-4)GlcNAc(b1-2)Man(a1-3)[Fuc(a1-2)[Gal(a1-3)]Gal(b1-4)GlcNAc(b1-2)Man(a1-6)]Man(b1-4)GlcNAc(b1-4)[Fuc(a1-6)]GlcNAc
# Outline: (§1)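 The binding signal is a Z-score computed within each array and averaged over linkers. Arrays of the same protein sequence at different concentrations or buffers were also averaged together. Data originate from 3228 arrays in the Consortium for Functional Glycomics database, kept only where the protein sequence was available.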
# [2] = biological target: Fuc(a1-2)[Gal(a1-3)]Gal(b1-4)GlcNAc(b1-3)GalNAc
# Outline: as §1
# [3] = biological target: Fuc(a1-2)[Gal(a1-3)]Gal(b1-4)GlcNAc(b1-3)[Fuc(a1-2)[Gal(a1-3)]Gal(b1-4)GlcNAc(b1-6)]GalNAc
# Outline: as §1
# [4] = biological target: Fuc(a1-2)[Gal(a1-3)]Gal(b1-4)GlcNAc(b1-6)GalNAc
# Outline: as §1
# [5] = biological target: Fuc(a1-2)[Gal(a1-3)]Gal(b1-4)[Fuc(a1-3)]Glc
# Outline: as §1
# [6] = biological target: Fuc(a1-2)[Gal(a1-3)]Gal(b1-4)[Fuc(a1-3)]GlcNAc
# Outline: as §1
# [7] = biological target: Fuc(a1-2)[Gal(a1-3)]Gal(b1-4)[Fuc(a1-3)]GlcNAc(b1-3)GalNAc
# Outline: as §1
# [8] = biological target: Fuc(a1-2)[Gal(a1-4)]Gal(b1-4)GlcNAc
# Outline: as §1
# [9] = biological target: Fuc(a1-2)[GalNAc(a1-3)]Gal
# Outline: as §1
# [10] = biological target: Fuc(a1-2)[GalNAc(a1-3)]Gal(b1-3)GalNAc(a1-3)[Fuc(a1-2)]Gal(b1-4)GlcNAc
# Outline: as §1
# [11] = biological target: Fuc(a1-2)[GalNAc(a1-3)]Gal(b1-3)GalNAc(b1-3)Gal(a1-4)Gal(b1-4)Glc
# Outline: as §1
# [12] = biological target: Fuc(a1-2)[GalNAc(a1-3)]Gal(b1-3)GlcNAc
# Outline: as §1
# [13] = biological target: Fuc(a1-2)[GalNAc(a1-3)]Gal(b1-3)GlcNAc(b1-2)Man(a1-3)[Fuc(a1-2)[GalNAc(a1-3)]Gal(b1-3)GlcNAc(b1-2)Man(a1-6)]Man(b1-4)GlcNAc(b1-4)GlcNAc
# Outline: as §1
# [14] = biological target: Fuc(a1-2)[GalNAc(a1-3)]Gal(b1-3)GlcNAc(b1-2)Man(a1-3)[Fuc(a1-2)[GalNAc(a1-3)]Gal(b1-3)GlcNAc(b1-2)Man(a1-6)]Man(b1-4)GlcNAc(b1-4)[Fuc(a1-6)]GlcNAc
# Outline: as §1
# [15] = biological target: Fuc(a1-2)[GalNAc(a1-3)]Gal(b1-3)GlcNAc(b1-3)GalNAc
# Outline: as §1
# [16] = biological target: Fuc(a1-2)[GalNAc(a1-3)]Gal(b1-3)GlcNAc(b1-6)GalNAc
# Outline: as §1
# [17] = biological target: Fuc(a1-2)[GalNAc(a1-3)]Gal(b1-4)Glc
# Outline: as §1
# [18] = biological target: Fuc(a1-2)[GalNAc(a1-3)]Gal(b1-4)GlcNAc
# Outline: as §1
# [19] = biological target: Fuc(a1-2)[GalNAc(a1-3)]Gal(b1-4)GlcNAc(b1-2)Man
# Outline: as §1
# [20] = biological target: Fuc(a1-2)[GalNAc(a1-3)]Gal(b1-4)GlcNAc(b1-2)Man(a1-3)[Fuc(a1-2)[GalNAc(a1-3)]Gal(b1-4)GlcNAc(b1-2)Man(a1-6)]Man(b1-4)GlcNAc(b1-4)GlcNAc
# Outline: as §1
# [21] = biological target: Fuc(a1-2)[GalNAc(a1-3)]Gal(b1-4)GlcNAc(b1-2)Man(a1-3)[Fuc(a1-2)[GalNAc(a1-3)]Gal(b1-4)GlcNAc(b1-2)Man(a1-6)]Man(b1-4)GlcNAc(b1-4)[Fuc(a1-6)]GlcNAc
# Outline: as §1
# [22] = biological target: Fuc(a1-2)[GalNAc(a1-3)]Gal(b1-4)GlcNAc(b1-3)Gal(b1-4)GlcNAc
# Outline: as §1
# [23] = biological target: Fuc(a1-2)[GalNAc(a1-3)]Gal(b1-4)GlcNAc(b1-3)Gal(b1-4)GlcNAc(b1-3)Gal(b1-4)GlcNAc
# Outline: as §1
# [24] = biological target: Fuc(a1-2)[GalNAc(a1-3)]Gal(b1-4)GlcNAc(b1-3)GalNAc
# Outline: as §1
# [25] = biological target: Fuc(a1-2)[GalNAc(a1-3)]Gal(b1-4)GlcNAc(b1-3)[Fuc(a1-2)[GalNAc(a1-3)]Gal(b1-4)GlcNAc(b1-6)]GalNAc
# Outline: as §1
# [26] = biological target: Fuc(a1-2)[GalNAc(a1-3)]Gal(b1-4)GlcNAc(b1-6)GalNAc
# Outline: as §1
# [27] = biological target: Fuc(a1-2)[GalNAc(a1-3)]Gal(b1-4)[Fuc(a1-3)]GlcNAc
# Outline: as §1
# [28] = biological target: Fuc(a1-2)[GalNAc(a1-3)]Gal(b1-4)[Fuc(a1-3)]GlcNAc(b1-3)GalNAc
# Outline: as §1
# [29] = biological target: Fuc(a1-2)[GalNAc(a1-4)]Gal(b1-4)GlcNAc
# Outline: as §1
# [30] = biological target: Fuc(a1-2)[GalNAc(b1-3)]Gal
# Outline: as §1
# Fuc(a1-3)GlcNAc = biological target: Fuc(a1-3)GlcNAc
# Outline: as §1
# [31] = biological target: Fuc(a1-3)[Gal(b1-4)]Glc6S
# Outline: as §1
# [32] = biological target: Fuc(a1-3)[Gal(b1-4)]GlcNAc
# Outline: as §1
# [33] = biological target: Fuc(a1-3)[Gal(b1-4)]GlcNAc(b1-2)Man
# Outline: as §1
# [34] = biological target: Fuc(a1-3)[Gal(b1-4)]GlcNAc(b1-2)Man(a1-3)[Fuc(a1-3)[Gal(b1-4)]GlcNAc(b1-2)Man(a1-6)]Man(b1-4)GlcNAc(b1-4)GlcNAc
# Outline: as §1
# [35] = biological target: Fuc(a1-3)[Gal(b1-4)]GlcNAc(b1-2)Man(a1-3)[Fuc(a1-3)[Gal(b1-4)]GlcNAc(b1-2)Man(a1-6)]Man(b1-4)GlcNAc(b1-4)[Fuc(a1-6)]GlcNAc
# Outline: as §1
# [36] = biological target: Fuc(a1-3)[Gal(b1-4)]GlcNAc(b1-3)Gal(b1-3)[Fuc(a1-4)]GlcNAc
# Outline: as §1
# [37] = biological target: Fuc(a1-3)[Gal(b1-4)]GlcNAc(b1-3)Gal(b1-4)[Fuc(a1-3)]GlcNAc
# Outline: as §1
# [38] = biological target: Fuc(a1-3)[Gal(b1-4)]GlcNAc(b1-3)Gal(b1-4)[Fuc(a1-3)]GlcNAc(b1-3)Gal(b1-4)[Fuc(a1-3)]GlcNAc
# Outline: as §1
# [39] = biological target: Fuc(a1-3)[Gal(b1-4)]GlcNAc(b1-3)GalNAc
# Outline: as §1
# [40] = biological target: Fuc(a1-3)[Gal(b1-4)]GlcNAc(b1-6)GalNAc
# Outline: as §1
# [41] = biological target: Fuc(a1-3)[Gal(b1-4)]GlcNAc(b1-6)[Gal(b1-3)GlcNAc(b1-3)]Gal(b1-4)Glc
# Outline: as §1
# [42] = biological target: Fuc(a1-3)[Gal(b1-4)]GlcNAc6S
# Outline: as §1
# [43] = biological target: Fuc(a1-3)[Gal3S(b1-4)]Glc
# Outline: as §1
# [44] = biological target: Fuc(a1-3)[Gal3S(b1-4)]GlcNAc
# Outline: as §1
binder,measurement,setting,value
B1,glycan array binding signal (z-score),[1],-0.155
same,glycan array binding signal (z-score),[2],0.003
same,glycan array binding signal (z-score),[3],0.705
same,glycan array binding signal (z-score),[4],-0.072
same,glycan array binding signal (z-score),[5],-0.122
same,glycan array binding signal (z-score),[6],-0.072
same,glycan array binding signal (z-score),[7],-0.141
same,glycan array binding signal (z-score),[8],-0.169
same,glycan array binding signal (z-score),[9],-0.172
same,glycan array binding signal (z-score),[10],-0.014
same,glycan array binding signal (z-score),[11],-0.194
same,glycan array binding signal (z-score),[12],-0.145
same,glycan array binding signal (z-score),[13],-0.276
same,glycan array binding signal (z-score),[14],-0.242
same,glycan array binding signal (z-score),[15],-0.154
same,glycan array binding signal (z-score),[16],-0.093
same,glycan array binding signal (z-score),[17],-0.168
same,glycan array binding signal (z-score),[18],-0.261
same,glycan array binding signal (z-score),[19],-0.172
same,glycan array binding signal (z-score),[20],0.124
same,glycan array binding signal (z-score),[21],-0.166
same,glycan array binding signal (z-score),[22],-0.198
same,glycan array binding signal (z-score),[23],-0.068
same,glycan array binding signal (z-score),[24],-0.169
same,glycan array binding signal (z-score),[25],-0.225
same,glycan array binding signal (z-score),[26],-0.196
same,glycan array binding signal (z-score),[27],-0.281
same,glycan array binding signal (z-score),[28],-0.174
same,glycan array binding signal (z-score),[29],-0.202
same,glycan array binding signal (z-score),[30],-0.168
same,glycan array binding signal (z-score),Fuc(a1-3)GlcNAc,-0.265
same,glycan array binding signal (z-score),[31],0.276
same,glycan array binding signal (z-score),[32],-0.035
same,glycan array binding signal (z-score),[33],-0.22
same,glycan array binding signal (z-score),[34],-0.255
same,glycan array binding signal (z-score),[35],0.593
same,glycan array binding signal (z-score),[36],-0.002
same,glycan array binding signal (z-score),[37],-0.185
same,glycan array binding signal (z-score),[38],-0.153
same,glycan array binding signal (z-score),[39],0.034
same,glycan array binding signal (z-score),[40],0.222
same,glycan array binding signal (z-score),[41],0.068
same,glycan array binding signal (z-score),[42],0.07
same,glycan array binding signal (z-score),[43],-0.003
same,glycan array binding signal (z-score),[44],-0.127
